Measurements as given in patent publication US20180016313A1 (MEDPACTO, published 2018).

Assays:
[1] = molecular target: T1, human LRP6 (hLRP6) protein (Cat. No. 1505-LR-025, R&D, USA) (human, UniProt O75581 20-1368, limits assumed); experiment: ELISA, 100 ng hLRP6 coated, DKK2 protein diluted serially from 100 nM, KD calculated from absorbance at 490 nm
T1 construct: Coated on the ELISA plate
T1 sequence (looked up): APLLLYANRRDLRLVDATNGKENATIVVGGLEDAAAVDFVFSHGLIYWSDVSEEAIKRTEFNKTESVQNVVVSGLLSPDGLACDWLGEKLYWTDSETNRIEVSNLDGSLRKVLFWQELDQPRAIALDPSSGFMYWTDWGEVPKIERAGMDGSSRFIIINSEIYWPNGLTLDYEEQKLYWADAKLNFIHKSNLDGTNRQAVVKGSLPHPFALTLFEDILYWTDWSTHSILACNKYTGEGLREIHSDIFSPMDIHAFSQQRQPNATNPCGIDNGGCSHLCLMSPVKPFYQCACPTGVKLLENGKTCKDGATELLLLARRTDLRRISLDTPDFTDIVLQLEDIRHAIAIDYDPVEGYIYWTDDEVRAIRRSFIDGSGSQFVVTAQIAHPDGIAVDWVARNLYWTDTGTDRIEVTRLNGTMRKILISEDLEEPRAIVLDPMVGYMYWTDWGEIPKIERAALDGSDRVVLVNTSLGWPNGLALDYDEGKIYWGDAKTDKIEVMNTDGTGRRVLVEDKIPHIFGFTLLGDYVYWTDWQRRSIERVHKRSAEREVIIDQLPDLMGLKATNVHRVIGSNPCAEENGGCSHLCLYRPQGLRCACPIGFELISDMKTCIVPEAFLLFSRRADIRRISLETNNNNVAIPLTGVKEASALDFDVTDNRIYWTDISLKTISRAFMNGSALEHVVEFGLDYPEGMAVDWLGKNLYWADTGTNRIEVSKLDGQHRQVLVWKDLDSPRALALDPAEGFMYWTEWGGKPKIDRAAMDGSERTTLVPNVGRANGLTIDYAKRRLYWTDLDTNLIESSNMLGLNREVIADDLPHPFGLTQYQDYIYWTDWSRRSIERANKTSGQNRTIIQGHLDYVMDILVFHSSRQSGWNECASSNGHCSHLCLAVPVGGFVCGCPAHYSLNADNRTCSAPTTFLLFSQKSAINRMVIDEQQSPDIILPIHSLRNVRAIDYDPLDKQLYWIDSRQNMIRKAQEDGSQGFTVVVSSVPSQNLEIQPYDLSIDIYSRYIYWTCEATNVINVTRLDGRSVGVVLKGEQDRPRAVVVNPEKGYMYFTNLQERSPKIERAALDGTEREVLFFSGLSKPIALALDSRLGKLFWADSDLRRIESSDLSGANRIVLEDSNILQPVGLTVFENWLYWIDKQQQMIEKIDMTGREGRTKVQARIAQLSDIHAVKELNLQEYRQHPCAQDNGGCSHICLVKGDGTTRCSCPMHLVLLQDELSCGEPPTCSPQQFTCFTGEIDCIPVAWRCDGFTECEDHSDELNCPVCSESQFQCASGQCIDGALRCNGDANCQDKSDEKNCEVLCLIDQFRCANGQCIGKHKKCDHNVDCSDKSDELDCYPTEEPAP
Protocol: (§1) Each purified DKK2 protein and 100 μl of 1% (w/v) skim milk/1×PBS were mixed to prepare 100 nM of DKK2 protein, and 100 nM of DKK2 protein was subjected to ¼ serial dilution. The diluted protein was applied to the prepared ELISA plate, and incubated at room temperature for about 2 hours. Thereafter, the plate was washed with 200 μl of PBST five times.
(§2) 2 μl of anti-Human Fc-HRP (Cat. No. 31413, Thermo, USA) antibody was mixed with 4 ml of PBS containing 1% (w/v) skim milk, and 200 μl of this mixture was added to each well of ELISA plate and incubated at room temperature for 1 hour. Thereafter, the secondary antibody of the ELISA plate was removed, and the plate was washed with 200 of PBS five times. 10 μl of H₂O₂ solution (Cat. No. H1009-100ML, Sigma, USA), 10 ml of PC buffer (5.1 g of citric acid monohydrate, 7.3 g of sodium phosphate/L (pH 5.0)), and one tablet of OPD (Cat. No. P8787-100TAB, Sigma, USA) were mixed to prepare a mixture, and a total volume of 100 μl of the mixture was added to each well. Incubation was performed at room temperature in the dark for 10 minutes, followed by color development. Thereafter, 50 μl of a stop buffer was added to each well to terminate the color development. Absorbance at 490 nm was measured using an ELISA reader, and a dissociation constant KD value (M) was calculated from the measured absorbance. […]

[2] = molecular target: T2, mouse LRP6 (mLRP6) protein (Cat. No. 2960-LR-025, R&D, USA) (mouse, UniProt O88572 20-1370, limits assumed); experiment: ELISA, 100 ng mLRP6 coated, DKK2 protein diluted serially from 100 nM, KD calculated from absorbance at 490 nm
T2 construct: Coated on the ELISA plate
T2 sequence (looked up): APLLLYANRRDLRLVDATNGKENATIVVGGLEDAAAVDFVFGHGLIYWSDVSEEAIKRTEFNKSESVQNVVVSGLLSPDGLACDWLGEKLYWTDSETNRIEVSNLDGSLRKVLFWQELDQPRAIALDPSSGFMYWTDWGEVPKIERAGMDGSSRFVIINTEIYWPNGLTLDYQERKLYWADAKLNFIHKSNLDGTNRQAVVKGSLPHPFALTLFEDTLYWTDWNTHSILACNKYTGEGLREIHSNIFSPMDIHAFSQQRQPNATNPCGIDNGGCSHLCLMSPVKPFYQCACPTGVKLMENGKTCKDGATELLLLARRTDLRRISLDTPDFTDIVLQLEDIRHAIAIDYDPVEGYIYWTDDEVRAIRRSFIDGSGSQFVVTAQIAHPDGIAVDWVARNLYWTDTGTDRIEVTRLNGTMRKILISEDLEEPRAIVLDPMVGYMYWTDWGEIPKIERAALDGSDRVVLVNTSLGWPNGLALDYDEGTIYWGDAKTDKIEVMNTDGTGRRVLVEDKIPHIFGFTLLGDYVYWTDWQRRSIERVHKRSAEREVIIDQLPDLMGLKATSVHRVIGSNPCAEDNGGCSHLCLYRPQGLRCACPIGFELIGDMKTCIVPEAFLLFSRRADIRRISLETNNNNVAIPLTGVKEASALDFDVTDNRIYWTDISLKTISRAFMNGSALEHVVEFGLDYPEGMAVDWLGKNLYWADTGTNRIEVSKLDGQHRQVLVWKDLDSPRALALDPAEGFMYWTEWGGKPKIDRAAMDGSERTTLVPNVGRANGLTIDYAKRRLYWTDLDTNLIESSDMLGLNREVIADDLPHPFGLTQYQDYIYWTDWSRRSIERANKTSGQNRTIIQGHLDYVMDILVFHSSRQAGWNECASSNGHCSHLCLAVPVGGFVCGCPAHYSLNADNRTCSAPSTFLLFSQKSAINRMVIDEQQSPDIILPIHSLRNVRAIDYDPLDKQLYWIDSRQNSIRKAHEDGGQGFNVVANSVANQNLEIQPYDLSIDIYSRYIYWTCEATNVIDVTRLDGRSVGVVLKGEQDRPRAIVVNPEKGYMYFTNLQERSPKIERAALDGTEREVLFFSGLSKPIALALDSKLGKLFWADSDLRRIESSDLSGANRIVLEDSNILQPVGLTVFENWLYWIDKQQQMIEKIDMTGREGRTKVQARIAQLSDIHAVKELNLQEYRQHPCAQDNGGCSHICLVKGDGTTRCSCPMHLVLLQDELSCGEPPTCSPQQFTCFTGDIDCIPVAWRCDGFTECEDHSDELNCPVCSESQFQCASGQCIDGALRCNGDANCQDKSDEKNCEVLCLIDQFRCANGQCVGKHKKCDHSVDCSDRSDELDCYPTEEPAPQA
Protocol: as §1, §2

B1: N-Fc-DKK2-Gly4 (Fc fusion)
chain: [sequence of human IgG1 Fc not given]KLNSIKSSLGGETPGQAANRSAGMYQGLAFGGSKKGKNLGQAYPCSSDKECEVGRYCHSPHQGSSACMVCRRKKKRCHRDGMCCPSTRCNNGICIPVTESILTPHIPALNGTRHRDRNHGHYSNHDLGWQNLGRPHTKMSHIKGHEGDPCLRSSDCIEGFCCARHFWTKICKPVLHQGEVCTKQRKKGSHGLEIFQRCDCAKGLSCKVWKDATYSSKARLHVCQKI
notes: also called DKK2 N-Gly4; N-Fc-DKK2-N-Gly4
Kd [1]: 5.5 nM | Kd [2]: 10 nM
